Laboratory results published in publication PMC12136788.
The other results are listed elsewhere or left out.

B1: chr2:135163197:135163198:+_ENSMUSG00000051177_ENSMUST00000110116|mus_hu|motif|central (ssRNA)
RNA: GGGAGUUCUACAGUCCGACGAUCGAAGAGCUGAGGCAUAUAGUUGGAUGAAUCCACACGUGUUCCUUUUGGAUAUAUCCUGCGGAGCUGCAUUUUGUUAUAUUCUACAAAUUCCACUGGAGACUUGGUGAGUUGUUCAAGUCCCAACAGAGGAUUGAGCAUCA
B2: chr6:143133109:143133110:+_ENSMUSG00000030275_ENSMUST00000032413|mus_mus|FALSE|FALSE (ssRNA)
RNA: GGGAGUUCUACAGUCCGACGAUCUUUGGGGAUCCAGCCAUUGUGCGCAUGAAUAGCAUGGAUUUUAGCAAGCUGACGAGCUAUUAGCCUGAAAAUGGCUGGGUUGCAGACAUGCUGCGGGUCCAAAGCUUCGCCCUGGAUAAACAACAGAGGAUUGAGCAUCA
B3: chr14:52433459:52433460:+_ENSG00000186469_ENST00000556752|hu_mus|motif|central (ssRNA)
RNA: GGGAGUUCUACAGUCCGACGAUCGAUGGUUCUCCUUCCUCUCUUUAAAUGCUGUGGACGAGAAAGGCGCCCACUUUGCGGGGAACUCUACAUGUAUGUCCCAGGAGCCCCAACACUCUUCAGCCUCCUCUCAGAGACUUAAAGCAACAGAGGAUUGAGCAUCA
B4: chr7:74146866:74146867:+_ENSG00000077809_ENST00000416070|hu_mus|FALSE|FALSE (ssRNA)
RNA: GGGAGUUCUACAGUCCGACGAUCUUCCUUCGCCAGCAAUAUCCUCUCAAGGCGAGGAAUGCCGUACGUCGACGGCCUUCUAAAAGGAAUCCCUUCAGGAAGCCCUUCUACGUAAAGAUCUUCAACAUGGGACUGGAAAAGAGGCAACAGAGGAUUGAGCAUCA
B5: chr12:39756943:39756944:-_ENSG00000139116_ENST00000544797|hu_mus|hu_hu_hu_mus_False|38_48 (ssRNA)
RNA: GGGAGUUCUACAGUCCGACGAUCGGUUUGGCUGUUACCCCCAAGGGAAUCCUGCAAGAGUCUUGUCAGCUUAGAGUCUCUGUAAGGGACAUGUGUGGCCCUCUUGCUCUUGUCCCCCAAGGCGCUGAUUACAUUCCCAAGAGCCAACAGAGGAUUGAGCAUCA
B6: chr9:19378429:19378430:-_ENSG00000137154_ENST00000315377|hu_mus|FALSE|FALSE (ssRNA)
RNA: GGGAGUUCUACAGUCCGACGAUCACAACAUACUGGCGGACAUCAUCUUCUUUGGAGAGAUUAAAAAGCUUGCGGAUUCUACUAGCCCUUUUAGGUCCCAACCGACGAGGCACAGUAGUGUCUGUCAGUCCAGGAAUAUCCUUCCAACAGAGGAUUGAGCAUCA

The binders below were run against T1, UNK ZnF1-3 (human, UniProt Q9C0B0 31-174) (assay: nsRBNS (natural sequence RNA bind-n-seq); RBNS binding buffer (assumed for nsRBNS): 25 mM Tris pH 7.5, 150 mM KCl, 3 mM MgCl2, 0.01% Triton X-100, 500 ug/ml BSA, 20 U/ml SUPERase-In, 4 C; UNK is unkempt and MSI1 is Musashi-1; names of the RNAs are library labels; protein concentration not given here; high values mean tight binding).
T1 sequence: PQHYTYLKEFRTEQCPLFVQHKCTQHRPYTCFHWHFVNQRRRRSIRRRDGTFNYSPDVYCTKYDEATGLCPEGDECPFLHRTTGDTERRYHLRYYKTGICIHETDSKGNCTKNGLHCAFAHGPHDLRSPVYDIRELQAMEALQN
In the case of B1, the binding signal is reported as 0.758 enrichment R. Binder B2 has a binding signal of 0.755 enrichment R. B3 gave a binding signal of 0.935 enrichment R. B4 was tested, and the binding signal was 0.61 enrichment R. B5 was tested, and the binding signal was 0.724 enrichment R. For B6, the binding signal was 0.949 enrichment R.
